{"source": "the supplement of paper PMC10126150", "note": "Sequences with one replicate were seen in a single cluster, so their values are uncertain.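 Further: ATP exposure 15 min at 22 °C before imaging.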"}
{"test_system": "ATP", "experiment": "switch fluorescence ratio, 500 uM ATP over buffer (Cy3 cluster intensity, sum of 5 cycles each) (fold (ratio)); higher = stronger signal-on switching upon ATP binding; sequences stand for … in TCGTCGGCAGCGTCAGATGTGTATAAGAGACAGTTTTTTTTTTTTTTTTTTTTTTTTT…TC", "details": "aptamer strand: ATP DNA aptamer (quencher-CACCTGGGGGAGTATTGCGGAGGAAGG + anchor), 100 nM annealed; ATP concentration: 500 uM; one replicate", "in_short": "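The quencher-labelled ATP aptamer, at 100 nM, was annealed to Cy3-labelled switching-strand clusters on a modified Illumina MiSeq flow-cell. The clusters were imaged in selection buffer, then after 15 min with 500 uM ATP at 22 °C, and this buffer/ATP cycle ran five times with NaOH stripping and re-annealing between runs. Per-cluster fluorescence ratios, summed target-cycle over summed buffer-cycle Cy3 intensity, were averaged per switch-domain sequence. Clusters outside 100-1000 RFU were excluded.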"}
{"sequence": "CTAAATTATA", "switch fluorescence ratio": 0.975}
{"sequence": "CTAAATTTGC", "switch fluorescence ratio": 0.998}
{"sequence": "CTAACAGGGA", "switch fluorescence ratio": 1.01}
{"sequence": "CTAACAGTAA", "switch fluorescence ratio": 1.05}
{"sequence": "CTAACATGAG", "switch fluorescence ratio": 1.07}
{"sequence": "CTAACATTAC", "switch fluorescence ratio": 1.53}
{"sequence": "CTAACCTAGA", "switch fluorescence ratio": 1.06}
{"sequence": "CTAACGAGCG", "switch fluorescence ratio": 1.03}
{"sequence": "CTAACGTGCT", "switch fluorescence ratio": 0.984}
{"sequence": "CTAAGAACAG", "switch fluorescence ratio": 0.997}
{"sequence": "CTAAGAACAT", "switch fluorescence ratio": 1.02}
{"sequence": "CTAAGATCCG", "switch fluorescence ratio": 1}
{"sequence": "CTAAGGGCAT", "switch fluorescence ratio": 1.02}
{"sequence": "CTAAGGTAGT", "switch fluorescence ratio": 1.01}
{"sequence": "CTAAGTACTT", "switch fluorescence ratio": 1.44}
{"sequence": "CTAAGTAGGG", "switch fluorescence ratio": 1.03}
{"sequence": "CTAAGTATGT", "switch fluorescence ratio": 1}
{"sequence": "CTAAGTCGCA", "switch fluorescence ratio": 1}
{"sequence": "CTAAGTGAAA", "switch fluorescence ratio": 0.97}
{"sequence": "CTAATAAGAT", "switch fluorescence ratio": 0.983}
{"sequence": "CTAATATAAC", "switch fluorescence ratio": 1.01}
{"sequence": "CTAATATAGG", "switch fluorescence ratio": 0.988}
{"sequence": "CTAATCCTTT", "switch fluorescence ratio": 0.928}
{"sequence": "CTAATTCGAA", "switch fluorescence ratio": 0.957}
{"sequence": "CTACACCGGT", "switch fluorescence ratio": 1.04}
{"sequence": "CTACCAGAGA", "switch fluorescence ratio": 1.02}
{"sequence": "CTACCATACG", "switch fluorescence ratio": 1.39}
{"sequence": "CTACCCAACG", "switch fluorescence ratio": 1.21}
{"sequence": "CTACCTATCA", "switch fluorescence ratio": 1.08}
{"sequence": "CTACGATAGG", "switch fluorescence ratio": 1.04}
{"sequence": "CTACGATTTT", "switch fluorescence ratio": 1.11}
{"sequence": "CTACGCGCTG", "switch fluorescence ratio": 1.07}
{"sequence": "CTACGGGTTT", "switch fluorescence ratio": 1.03}
{"sequence": "CTACGGTCGA", "switch fluorescence ratio": 1.02}
{"sequence": "CTACGTTGGT", "switch fluorescence ratio": 1.07}
{"sequence": "CTACTAGATA", "switch fluorescence ratio": 1.01}
{"sequence": "CTACTTCTA", "switch fluorescence ratio": 1.04}
{"sequence": "CTACTTTCTT", "switch fluorescence ratio": 1.03}
{"sequence": "CTAGAATTT", "switch fluorescence ratio": 0.964}
{"sequence": "CTAGACATCG", "switch fluorescence ratio": 1.1}
{"sequence": "CTAGACGTCT", "switch fluorescence ratio": 1.03}
{"sequence": "CTAGAGAATT", "switch fluorescence ratio": 1.01}
{"sequence": "CTAGATACTC", "switch fluorescence ratio": 3.1}
{"sequence": "CTAGCAAAGT", "switch fluorescence ratio": 1.06}
{"sequence": "CTAGCATGGC", "switch fluorescence ratio": 1.03}
{"sequence": "CTAGCATGTG", "switch fluorescence ratio": 0.999}
{"sequence": "CTAGCCTTTT", "switch fluorescence ratio": 0.999}
{"sequence": "CTAGCGGGTA", "switch fluorescence ratio": 1.01}
{"sequence": "CTAGCGGTTG", "switch fluorescence ratio": 0.988}
{"sequence": "CTAGCTA", "switch fluorescence ratio": 1.04}
{"sequence": "CTAGGAGCCC", "switch fluorescence ratio": 0.977}
{"sequence": "CTAGGAGTTA", "switch fluorescence ratio": 0.999}
{"sequence": "CTAGGGCAGT", "switch fluorescence ratio": 1}
{"sequence": "CTAGGGGCAA", "switch fluorescence ratio": 1.83}
{"sequence": "CTAGGGGTCC", "switch fluorescence ratio": 1.02}
{"sequence": "CTAGGGTACA", "switch fluorescence ratio": 1.09}
{"sequence": "CTAGGTATAC", "switch fluorescence ratio": 1.3}
{"sequence": "CTAGTAATAT", "switch fluorescence ratio": 1.25}
{"sequence": "CTAGTAGAC", "switch fluorescence ratio": 1.03}
{"sequence": "CTAGTAGGCG", "switch fluorescence ratio": 0.964}
{"sequence": "CTAGTCCGAG", "switch fluorescence ratio": 1.07}
{"sequence": "CTAGTGTCGT", "switch fluorescence ratio": 0.951}
{"sequence": "CTAGTTCTTG", "switch fluorescence ratio": 1.02}
{"sequence": "CTAGTTTAGC", "switch fluorescence ratio": 1.02}
{"sequence": "CTAGTTTATA", "switch fluorescence ratio": 0.982}
{"sequence": "CTATAAGGCG", "switch fluorescence ratio": 0.982}
{"sequence": "CTATACATGT", "switch fluorescence ratio": 1.01}
{"sequence": "CTATACTATT", "switch fluorescence ratio": 0.97}
{"sequence": "CTATATAGAC", "switch fluorescence ratio": 1}
{"sequence": "CTATATCGTT", "switch fluorescence ratio": 1}
{"sequence": "CTATATGGGT", "switch fluorescence ratio": 0.969}
{"sequence": "CTATCACCAA", "switch fluorescence ratio": 1.05}
{"sequence": "CTATCCGCA", "switch fluorescence ratio": 1.83}
{"sequence": "CTATCGCGCC", "switch fluorescence ratio": 1.12}
{"sequence": "CTATCTACAC", "switch fluorescence ratio": 1.06}
{"sequence": "CTATCTAGGG", "switch fluorescence ratio": 0.998}
{"sequence": "CTATCTCCAG", "switch fluorescence ratio": 1.04}
{"sequence": "CTATCTGATA", "switch fluorescence ratio": 0.957}
{"sequence": "CTATCTGGAA", "switch fluorescence ratio": 1}
{"sequence": "CTATGACTAG", "switch fluorescence ratio": 0.973}
{"sequence": "CTATGACTCC", "switch fluorescence ratio": 1.13}
{"sequence": "CTATGAGCT", "switch fluorescence ratio": 1.03}
{"sequence": "CTATGAGTTA", "switch fluorescence ratio": 1.02}
{"sequence": "CTATGATAGA", "switch fluorescence ratio": 1.01}
{"sequence": "CTATGCTCGC", "switch fluorescence ratio": 1.05}
{"sequence": "CTATGTAACA", "switch fluorescence ratio": 0.984}
{"sequence": "CTATGTTAGG", "switch fluorescence ratio": 0.979}
{"sequence": "CTATTCCCA", "switch fluorescence ratio": 1.02}
{"sequence": "CTATTGAAAC", "switch fluorescence ratio": 0.997}
{"sequence": "CTATTGGCGA", "switch fluorescence ratio": 1.02}
{"sequence": "CTATTTCCT", "switch fluorescence ratio": 1.05}
{"sequence": "CTATTTCTAT", "switch fluorescence ratio": 1.02}
{"sequence": "CTATTTGGTT", "switch fluorescence ratio": 0.981}
{"sequence": "CTATTTTGGA", "switch fluorescence ratio": 0.957}
{"sequence": "CTCAAAAGAT", "switch fluorescence ratio": 1.06}
{"sequence": "CTCAATGAGC", "switch fluorescence ratio": 0.922}
{"sequence": "CTCACCCCAG", "switch fluorescence ratio": 2.64}
{"sequence": "CTCACCGTAC", "switch fluorescence ratio": 1.84}
{"sequence": "CTCACGACAG", "switch fluorescence ratio": 1.03}
{"sequence": "CTCACGACCG", "switch fluorescence ratio": 1.04}
